Source: the RNAGym collection of RNA variant scans (doi:10.1073/pnas.2313332121)
Variants at the background level are over-represented here.

B1: TPR 5TU (parent)
chain: GGAUCUUCUCGAUCUAACAAAAAAGACAAAUCUGCCACAAAGCUUGAGAGCAUCUUCGGAUGCAGAGGCGGCAGCCUUCGGUGGCGCGAUAGCGCCAACGUUCUCAACUAUGACACGCAAAACGCGUGCUCCGUUGAAUGGAGUUUAUCAUG

Variants of: B1
Experiment: polymerase ribozyme fitness, log enrichment relative to wild type (log ratio); higher = more active; in vitro selection for triplet polymerase activity
Summary of the method: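 One round of in vitro selection, in triplicate, was applied to PCR-built, transcribed mutant libraries of each subunit of a heterodimeric triplet polymerase ribozyme. The steps were annealing with a biotinylated primer, partner subunit and triplets, incubation frozen at −7 °C, gel excision of extended constructs, streptavidin-bead capture and RT-PCR. Fitness is the logarithm, base 2, of genotype enrichment over wild-type enrichment from inverse-variance-weighted replicate averages of Illumina-sequenced inputs and outputs, keeping genotypes with ≥10 input reads and ≥1 read per output.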

Polymerase ribozyme fitness (log ratio), ≤ -4.2:
A16U A23U A28C A39U C79U G84A
A16U A23U C99G
A16U A24C A28U U45A U78C G83C A97G U104G G143C
A16U A24G A26G C27U A39U G48U G58C U61A G86U A89G
A16U A24G A28C A41C C54A A106U U144A
A16U A24G U53A G59U C85A A138C
A16U A29G A30G C85U
A16U A30C A47C C54G G71A G84U C95G C105U
A16U A30G G50U G68A G80A G94A U144G
A16U A30U G34A C99G G141A U148A
A16U A37U U53A G67U C105U A107G
A16U A39G A49C C69A G83A
A16U A39G A91C C96U A106C G141C G143U U145A G152U
A16U A40G U45A C79U C85U A107U G141A
A16U A47G G67U G71A C103A C116U
A16U A47U G48A G68U A73G U77C C96U G136U
A16U A52C U53C U55A G88A U90C G133C
A16U A52G C87A A97C G136U
A16U A89G C93G A97C A121U G141C
A16U C18A C35A C79A C85G G94A C96A
A16U C18G C54U U55G C75G C87U C99U A120G A122U G140U U145A
A16U C18U C36U C76U G92C C93A
A16U C27A A30U U53C C95G U134C
A16U C27G A30C U82C G92U C129A C131U A150C
A16U C27G C75G C85G C103G C105U U135A A147C
A16U C32A U61A U78A G86U
A16U C32G C36A A113U A138U
A16U C32U U44A C93G
A16U C38A A40G C95G A150G
A16U C43A A52U G58U C75A C93G A137C G140U
A16U C54U G68U
A16U C63A A91G G92U C123A U134A U145G
A16U C132G
A16U G25C A64G G70A G84U A91U U102A C105U C114A C123A
A16U G34C G94C
A16U G42A G88A C129A
A16U G42C C87G A89U A106U
A16U G48C A73G C93U U102A
A16U G48U C72G C85U U109G G117U C129A
A16U G50A A52C U53G U56A A73G C93U A98U A115G
A16U G50U A52C A73G C85G A91U C105A
A16U G62A C75U U144A
A16U G74C U101C C116U G143U
A16U G94A A119C C132G A138U
A16U U33C C35U U45A A47G G70A G94A C125U U127A
A16U U33C G65C A66G C85G C103G C116A
A16U U44A C69A A97G G100C C116G A119U
A16U U56C C87G
A16U U56G A64C A91U A98U G100A U101G
A16U U77A
A16U U148A
A17C A20G A30U U31C A49U C51A U55A A91G A98G G112C G117U C118A
A17C A21C C27G G58U C95A
A17C A21C C54U A91U U145G
A17C A23C A24U A37C A40U A66C C72U A73G G84U G86A
A17C A23G G25U A28G C57U G58C G68A C93U C96G
A17C A28G G83C G84A C87A A89G C105G G140U G152C
A17C A28U C95U A110U A122U
A17C A29U C32G A39G C43U A60G U61A C85A C118G A119U C132G
A17C A30C A73G C87A
A17C A30G C36U G141C U148A
A17C A30U A39U U53A G83C A89U A97G
A17C A40G C63U A89G G117A G126C U127A U135G U139C G143A
A17C A47G C75A C85G U148A U151A
A17C A89G C96A G124C C129A G143C U145A
A17C A91U G128A U139C A150U
A17C C18A A49G U53A A73G G81U C87U C93G
A17C C18G G46A G128U C131G
A17C C27G A29C G71U C79U A115G G126C G136U
A17C C27U A41U G58C G94U G136C
A17C C36G C76G A91U G92U A119U
A17C C38U A49C G58C U61A A91U A98U C108U
A17C C43U C79G G92A G112C A142G U144A
A17C C63G C69A G83U A91U G92U U104G
A17C G25C U44C A49C U55A G62C U78A G88U
A17C G48A U55G C85U G86C C87A A89C C123A G136A U145C
A17C G65C G71A G94A A137C
A17C G68C A73U G86C G94A C116A
A17C G83A G84A C114U A122U
A17C U53A C79A C87U A113U A138C
A17C U55A C75G C87A G100C G128U
A17G A19C G48U A52C U53C U101G C108G G140U A150G G152U
A17G A19U U31A C35U A52G G74U G88A
A17G A24C
A17G A24U C63A A64U A91C
A17G A26C A29G G58A A64U G86U C129A
A17G A26U A39C C57U C99U C114U C118U A122U
A17G A28C G59A A66C C72U G92U
A17G A28C U61A G86A C87U U144C
A17G A29G U45C U61A C75G
A17G A30C A47C C87A C95G A120U U148C
A17G A30C C51U G81C C96U U101G U144C
A17G A30C G94C A106G A115G
A17G A39U A40U A91U G92C C116G G141C U151G
A17G A40C U53A C69A C99U U144G
A17G A40U A52C C87A A89G C105G C123G A150G
A17G A52C C105G
A17G A64C C75U G83A
A17G A64U G83U C95U A147C
A17G C18G G50C C72U C85G C95A
A17G C27G U33G A49C C57A A73C C75U C99G A106C A115G U148A
A17G C36A A49C A60G C118U U145G
A17G C51G C85A G92A G140U U145G
A17G C57U U61A U78C C103U G141U
A17G C69U G71U G80C U82G C93G G117A
A17G C72A U134A
A17G C76G U144A
A17G C87A
A17G G25A A41U C57G C75G U77G U78C G126A
A17G G42U C54A C85G A147C
A17G G71U C87A C125A G126U
A17G G88U C96A
A17G U45A C54U G58A C76U G88C A110C U144A
A17G U53A C75G C79G C85U C123A C132U G140A
A17G U77A
A17U A19C C103G C108U
A17U A20C C54U A73U G136U U144G U145G
A17U A20G A23G A40C U134A
A17U A20U C27G A39G U56A C96A C103U
A17U A21G A24U G88C G133U G141A
A17U A21U A47C C54A A97U A106C A107U
A17U A22U G42U A49C G50C C76A G84U
A17U A23G A30G G34U C57U C95G C99G C114U A137C A150C
A17U A24G C57U G58C C85U G86A
A17U A24U A40C G48U G84U U101A A142C
A17U A29U C36G U53A C54U U56A C85G
A17U A30C U53A G65U G83A
A17U A37C C93G C96A C131G
A17U A40C G46A C76A C95A C125U
A17U A40U C54A C108G
A17U A52C G88C U90G
A17U A52G G58C G86U A97G C125A A142C
A17U A60C C76A G94C A106C A138U U146G C149U
A17U A60U G65C G112U
A17U A97U A107G
A17U C18G A28C C32A A40G C85U
A17U C32G C75A A120U G128A U145G
A17U C38U G46A C54U C79U U135A
A17U C57A A73U C93U A97U A115G G143C
A17U C72G U144A
A17U C75A A91G G94C U146C U148A U151A
A17U C76G
A17U C87G A91C C103U C114U U144G
A17U G25U A28G A41C C43U U55G G74A A91G C96G A137G
A17U G42A C79U G88C U102C U127A U134G U148A
A17U G42A C85A C105U A107U A110C G136C
A17U G46C G65A C85G G117U A122C A137G
A17U G50C A60U A119C A142G G143A
A17U G50C G83C C87U
A17U G86U A89G G92A
A17U G92U C103G U109G G117U A142G
A17U U44A C54A G83C A98U G152U
A17U U55A C96G A120G C131G
A17U U55G A91U
A17U U61A G84A U90G A119C C123A U148A
C18A A19U A24U U78A C118G A120U
C18A A20C U31G G86U C131A
C18A A22G A29G C76A G84A
C18A A28C G34C A47U A49C U53A G68A
C18A A49C U104C G128U A137G
C18A C27U G84A C129G G133A
C18A C36U G67C U148A
C18A G83A C85G C114G A115C A120U U135A
C18A U33G C36U G58C G94A C123G A138G
C18A U53A G65U G67C G83C
C18A U53G A66C G94C C99G C116G
C18G A19G A52C U78A G84U U135A
